Reference: PubChem BioAssay AID1240 (Sanford-Burnham Center for Chemical Genomics, 2008)
Screen size: about 50,000 compounds; about 800 (1.6%) showed an effect of 50% or more. Some of the results follow.

Each molecule was assayed against Bcl-2-like protein 10 (Homo sapiens) (UniProt Q9HD36) (assay: TR3 peptide-Bcl-B binding displacers, biochemical primary FP assay, phenotype converters (AID 1240;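 further: 0% = Bcl-B with tracer peptide and DMSO and 100% = tracer peptide lacking Bcl-B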)). Settings: GST-Bcl-B / FITC-TR3 peptide fluorescence polarization; stronger effect = higher value; compound at 3.75 mg/L.
Chain of UniProt Q9HD36 (Q9HD36 whole entry, looked up): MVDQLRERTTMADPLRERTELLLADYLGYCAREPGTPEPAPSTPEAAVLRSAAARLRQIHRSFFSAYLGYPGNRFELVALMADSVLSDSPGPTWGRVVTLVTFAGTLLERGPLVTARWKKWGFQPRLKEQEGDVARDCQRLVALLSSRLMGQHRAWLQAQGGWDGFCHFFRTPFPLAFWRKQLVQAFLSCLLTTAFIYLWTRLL

Compound	displacement [%]
Cc1ccc(NC(=O)C2CC(O)CN2C(=O)Oc2ccccc2)c(C)c1 (stereo not drawn)	13.8
N#Cc1c(-n2ncnc2-c2cccc([N+](=O)[O-])c2)sc2c1CCCC2	5.6
Cc1ccc(Cc2cnc(NC(=O)c3ccccc3[N+](=O)[O-])s2)cc1	11.8
O=C1c2ccccc2NC(c2ccc(Cl)c(Cl)c2)N1Cc1ccco1 (stereo not drawn)	10.9
O=C(c1cc2n(n1)C(C(F)(F)F)CC(c1ccc3c(c1)OCO3)N2)N1CCN(C(c2ccccc2)c2ccccc2)CC1 (stereo not drawn)	14.5
COc1ccc(Cl)cc1/C=C1\C(=O)NC(=O)N(c2ccc(Cl)cc2)C1=O	5.1
O=C(COc1ccccc1[N+](=O)[O-])Nc1ccc2oc(-c3ccc(Br)cc3)nc2c1	10
Oc1c(/C=C2\C=Nc3ccccc32)sc(=S)n1-c1ccc(F)cc1	-13.8
O=C(NN1C(=O)/C(=C/C=C/c2ccccc2[N+](=O)[O-])SC1=S)c1ccccc1Br	-0.6
O=C1c2ccccc2C(=O)c2c1oc(C(F)(F)F)c2C(=O)c1ccccc1	-30.1
CSc1nc2ccc(NC(=O)/C=C/c3ccccc3)cc2s1	-13.2
CS(=O)(=O)N(Cc1ccc(Cl)cc1)c1ccc(C(=O)NCC2CCCO2)cc1 (stereo not drawn)	-9.7
Cc1cccc(C)c1OCC(=O)Nc1ccc(-c2nc3ccccc3[nH]2)cc1	10.5
COc1ccc(/C=C/C(=O)Nc2ccccc2O)cc1	8.1
COC(=O)C1=C(C)N(c2ccccc2)C(=O)/C1=C\c1ccc(C(=O)OC)cc1	130
CSc1nc2ccc(NC(=O)CSc3ccccn3)cc2s1	1.5
Cn1c2ccc(CC(N)=O)cc2c2cc(CC(N)=O)ccc21	0
CCC(=O)N1CCN(c2cc(C)c(C(C)=O)cc2F)CC1	-15.1
CN1CCN(C(=O)/C(=C\c2cccs2)NC(=O)c2ccccc2)CC1	-8.8
COc1ccc(/C=N\Nc2nc(-c3ccccc3)cc(-c3ccccc3)n2)cc1OC	-3.9
O=C(Nc1ccc(NC(=O)c2ccc(-c3ccc(F)cc3)o2)cc1)c1ccco1	4.5
COC(=O)c1ccc(NC(=O)c2ccoc2C)cc1	-2.7

Compound	displacement [%]
O=C(Nc1ccccc1O)c1cc(I)ccc1Cl	0.7
Cc1ccc(CN2CCN(N=Cc3ccc(Br)cc3)CC2)c(C)c1	11.9
CCOC(=O)c1c(NC(=S)Nc2ccc(C)cc2)sc2c1CCN(Cc1ccccc1)C2	-58.5
COc1ccc(C=NCCC23CC4CC(CC(C4)C2)C3)c(OC)c1	1.2
CCc1c(O)nc(SCCN(CC)CC)[nH]c1=O	-16.6
N#CC(C#N)=C1NC2(CCCCC2)Cc2ccccc21	-8
CCOc1cc(C(=O)Nc2ccc([N+](=O)[O-])cc2C)cc(OCC)c1OCC	11.4
O=c1c2ccccc2ncn1-c1ccc([N+](=O)[O-])cc1C(F)(F)F	4.6
CSc1nc2ccccc2n1CC(=O)NC(c1ccccc1)c1ccccc1	10.4
CC(=Nc1ccncc1)C1=C(O)CC(C)(C)CC1=O	3
CN(C)c1ccc(CNC(=O)C(O)(c2ccc(Cl)cc2)c2ccc(Cl)cc2)cc1	-10.1
CCOc1ccc(N2C(=O)/C(=C/c3cc(OC)c(OC)c(OC)c3)SC2=S)cc1	-5.7
COc1cccc(/C=N/N(C)C2=NS(=O)(=O)c3cc([N+](=O)[O-])ccc32)c1O	-11.3
COc1ccccc1-c1c(C(F)(F)F)oc2cc(OCc3ccccc3)ccc2c1=O	5.5
COc1ccccc1NCCC(=O)c1ccccc1	5
CN(NC1CC(=O)N(c2cccc(Cl)c2)C1=O)c1ccccc1 (stereo not drawn)	-6.5
CCOC(=O)c1c(NC(=O)C(CC)Sc2nc(C)cc(C)n2)sc2c1CCCC2 (stereo not drawn)	-6
N/C(=N\c1nc2ccccc2o1)NC(=O)c1ccccc1	-10.3
O=C1CSC(c2ccc([N+](=O)[O-])cc2)N1c1cccc(Cl)c1 (stereo not drawn)	-6
Cc1c(NC(=O)CSc2nnc(-c3cccc(F)c3)n2-c2ccccc2)c(=O)n(-c2ccccc2)n1C	13.4
CCCCOc1ccc(C(=O)NCc2cccc3ccccc23)cc1	-6.8
O=C(NCCOC(=O)c1ccc(F)cc1)c1ccncc1	8.3

Compound	displacement [%]
NC(=O)C(Cc1c[nH]c2ccccc12)NC(=O)OCc1ccccc1 (stereo not drawn)	2.3
CCOC(=O)c1ccc(NC(=O)c2ccccc2OC)cc1	11.9
COc1ccccc1/C=C1\SC(=S)N(C(Cc2ccccc2)C(=O)O)C1=O (stereo not drawn)	19.2
O=C(NC(=S)Nc1cccnc1)c1ccco1	-3.3
CCCCC(=O)Nc1ccccc1C(F)(F)F	-2.2
CCOC(=O)C1=C(C)N=c2s/c(=C\c3ccc([N+](=O)[O-])o3)c(=O)n2C1c1cccs1 (stereo not drawn)	-19.3
O=C(Nc1cccc2ccccc12)c1ccc(-c2ccccc2)cc1	4.3
COc1ccc(/C=C2/SC(=O)N(CNc3cc(C)ccc3C)C2=O)cc1OC	12.7
COc1c(Cl)cc(C(=O)Nc2ccc(-c3nc4ccccc4o3)c(O)c2)cc1Cl	11
Cc1ccc(C2=N/C(=C\c3ccc(N(C)C)cc3)C(=O)O2)cc1	2.9
O=C(Nc1cccc(-c2nc3ccccc3s2)c1)c1ccncc1	21.5
N/C(CSc1nnc2c(n1)[nH]c1ccccc12)=N\O	16.3
O=C1O/C(=C\C(=O)N2CCOCC2)c2ccccc21	2.4
CCn1c2ccccc2c2cc(/C=N/NC(=O)c3cccc(Br)c3)ccc21	5.1
COc1cc(NC(=O)COc2ccccc2C)ccc1NC(=O)c1ccco1	8.5
O=C(c1ccccc1)c1ccccc1C(=O)N(C1CCCCC1)C1CCCCC1	5.8
CC(=C(C#N)C#N)c1ccc2c(c1)OCCO2	4.4
COc1cccc(C2=NN(C(=O)Cc3ccccc3)C(O)(C(F)(F)F)C2)c1 (stereo not drawn)	2.9
CCOc1ccc(NC(=O)CSc2nc3ccc(OC)cc3[nH]2)cc1	-15.6
O=C(NC1CCN(Cc2ccccc2)CC1)c1ccccc1Cl	-6.7
COC(=O)c1ccccc1NC(=O)C1CC(=O)N(c2ccc(Br)cc2)C1 (stereo not drawn)	2.4
O=C(Nc1ccccc1C(=O)N=Nc1c(O)[nH]c2ccccc12)c1ccccc1	21.6

Compound	displacement [%]
CCCN1CCC(=NNC(=O)c2ccc(O)cc2)CC1	7.1
COc1cccc(C2(c3cccc(OC)c3)CC2C(=O)Nc2ccccc2Cl)c1 (stereo not drawn)	-3.8
O=c1c[n+]([O-])c2ccccc2n1OCc1ccccc1	15.9
COc1cc2c(cc1OC)C(c1ccc(C)o1)SC(c1ccc(C)o1)=N2 (stereo not drawn)	-1.1
O=C(Oc1ccc([N+](=O)[O-])cc1)c1ccc(Cl)c(S(=O)(=O)N2CCOCC2)c1	-4.1
COc1ccc(-c2cn3c4ccccc4n(N)c3n2)cc1	1.1
Cc1ccc(S(=O)(=O)N2CCN(C(=O)c3cccnc3)CC2)cc1	-1.9
Cc1ccc([N+](=O)[O-])cc1NC(=O)COc1ccc(C(C)(C)C)cc1	14.7
COc1ccc(Br)cc1/C=N/NC(=O)C(=O)NC1CCCCC1	11.3
CCN(CC)CCn1c(NC(C)=O)nc2ccccc21	-14.5
COc1cc(/C=C2\C(=O)NN(c3ccccc3)C2=O)ccc1OS(=O)(=O)c1ccccc1	-5.8
Cn1cc(/C=C(/C#N)C(=O)Nc2cccc(Br)c2)c2ccccc21	-1.1
O=C(Nc1ccccc1[N+](=O)[O-])c1ccc(N2C(=O)CCC2=O)cc1	5.5
O=C(/C=C(\O)c1ccccc1)C(=O)Nc1ccc(C(=O)O)cc1	0.3
COc1cc(C=O)ccc1OC(C)c1ccccc1 (stereo not drawn)	1.1
COc1ccc(Cl)cc1N(CC(=O)N1CCCCCC1)S(=O)(=O)c1ccc(C)c([N+](=O)[O-])c1	-15.9
COc1ccc(-c2nc3ccccc3c(=O)n2CCCn2ccnc2)cc1	-4.6
O=C(Oc1ccc2c(Cl)c(C(=O)Nc3ccc(F)cc3)sc2c1)c1ccco1	19.5
C=CCSc1nc2sc3c(c2c(=O)n1CCc1ccccc1)CC(C)(C)OC3	-6.8
O=C(Nc1cccnc1)c1cc2n(n1)C(C(F)(F)F)CC(c1ccc(Br)cc1)N2 (stereo not drawn)	1.1
COc1cc(C(=O)n2nc(C)c(Sc3ccc(C)cc3)c2C)cc(OC)c1OC	-0.8
O=C(NCc1ccco1)c1cc2nc(-c3ccccc3)cc(-c3ccccc3)n2n1	-4

Compound	displacement [%]
CC1(C)C/C(=N\O)c2cc3c(nc2C1)CCCC3	3
Cc1cccc2c1N(C(=O)CN1C(=O)CCC1=O)C(C)(C)c1ssc(=S)c1-2	-2.3
O=C(NCC1CCCO1)C(=O)Nc1ccccc1F (stereo not drawn)	10
O=C(CSc1nnc(-c2ccco2)o1)c1ccc(Br)cc1	-17
COc1ccccc1C(=O)N1CCN(Cc2ccccc2Br)CC1	-24.1
O=[N+]([O-])c1ccc(C=Nc2ccc(Cl)cc2Cl)s1	13.7
COc1ccc(S(=O)(=O)N(CC(=O)Nc2ccc(C(C)=O)cc2)c2cc(C)cc(C)c2)cc1OC	-4.7
COc1cc(NC(=O)c2ccc(-c3ccccc3)cc2)ccc1NC(=O)c1ccco1	1.7
Cc1ccc(NC(=O)CCCOc2ccccc2)cc1	1.9
Cc1ccc(C(=O)Nc2cccc3ccccc23)o1	16.6
COc1ccc(C(=O)NC(NC(=O)c2ccc(OC)c(OC)c2)c2ccc(Br)cc2)cc1OC	8.2
COc1ccc(S(=O)(=O)N2CCN(C3CCC(C)CC3)CC2)cc1 (stereo not drawn)	-25.6
CC(=O)Nc1ccc(NS(=O)(=O)c2ccc(C(C)(C)C)cc2)cc1	-0.2
O=[N+]([O-])OC12CC3CC(C1)CC([N+](=O)[O-])(C3)C2	-6.9
Nc1cc(-c2ccc(Br)cc2)nn1C1CCCCC1	-7.2
Cn1c(-c2ccco2)nc2c3ccccc3ccc21	9.9
Cc1onc(-c2ccccc2Cl)c1C(=O)N1CCC(Cc2ccccc2)CC1	7.1
Cc1ccc(S(=O)(=O)Nc2cc(C(=O)O)cc(C(=O)O)c2)cc1	-2.1
COc1ccc(CC(=O)Nc2ccc(Cl)c(C(F)(F)F)c2)cc1OC	6.1
Cc1ccccc1OCCn1cc(/C=C2/SC(=S)N(C)C2=O)c2ccccc21	11.6
